# Publication PMC4336329 (PLoS ONE, 2015)
# Hit rate of the full screen: of about 310,000 compounds, about 14,000 (4.5%) showed an effect of 50% or more. Effects have a minus sign here. The list shows a part of the results.
# Target: human ether-à-go-go-related gene (hERG) potassium channel (human, UniProt Q12809)
# Assay: primary screen, population patch clamp on CHO cells stably expressing hERG
# 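Also: peak tail current of the secondary pulse compared with the same well before compound.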
# human ether-à-go-go-related gene (hERG) potassium channel, sequence (Q12809 whole entry, looked up): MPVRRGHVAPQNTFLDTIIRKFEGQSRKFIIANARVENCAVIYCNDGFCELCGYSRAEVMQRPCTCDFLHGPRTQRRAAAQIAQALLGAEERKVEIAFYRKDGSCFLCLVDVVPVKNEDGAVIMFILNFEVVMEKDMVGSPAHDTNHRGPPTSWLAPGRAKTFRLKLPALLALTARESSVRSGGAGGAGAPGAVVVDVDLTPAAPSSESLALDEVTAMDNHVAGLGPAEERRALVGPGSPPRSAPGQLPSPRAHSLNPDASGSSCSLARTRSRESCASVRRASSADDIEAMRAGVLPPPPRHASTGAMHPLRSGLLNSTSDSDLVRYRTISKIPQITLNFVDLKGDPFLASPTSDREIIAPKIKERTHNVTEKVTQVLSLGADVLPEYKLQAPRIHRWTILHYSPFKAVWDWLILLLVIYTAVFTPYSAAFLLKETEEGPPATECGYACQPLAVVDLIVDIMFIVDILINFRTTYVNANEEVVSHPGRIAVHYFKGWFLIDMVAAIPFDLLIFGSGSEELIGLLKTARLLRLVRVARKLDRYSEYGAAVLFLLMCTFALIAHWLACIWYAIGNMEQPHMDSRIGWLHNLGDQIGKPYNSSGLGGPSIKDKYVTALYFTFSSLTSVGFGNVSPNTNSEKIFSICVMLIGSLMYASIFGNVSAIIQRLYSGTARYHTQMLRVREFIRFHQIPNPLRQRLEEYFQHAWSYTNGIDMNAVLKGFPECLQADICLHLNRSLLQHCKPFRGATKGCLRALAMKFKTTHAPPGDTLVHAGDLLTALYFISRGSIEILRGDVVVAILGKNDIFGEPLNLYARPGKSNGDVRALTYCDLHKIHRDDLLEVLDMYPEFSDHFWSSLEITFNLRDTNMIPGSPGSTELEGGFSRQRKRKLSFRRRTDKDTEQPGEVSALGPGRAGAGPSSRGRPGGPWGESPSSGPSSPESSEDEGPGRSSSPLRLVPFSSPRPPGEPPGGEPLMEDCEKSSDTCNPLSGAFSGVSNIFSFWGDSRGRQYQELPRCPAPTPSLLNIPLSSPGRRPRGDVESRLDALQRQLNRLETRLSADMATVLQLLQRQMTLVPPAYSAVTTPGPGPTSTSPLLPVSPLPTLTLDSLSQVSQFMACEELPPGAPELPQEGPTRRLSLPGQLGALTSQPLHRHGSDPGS
row,Compound,"hERG current change (%, negative = inhibition) at 10uM [%]"
1,CC(=NCC1CCCO1)C1=C(O)CC(C)(C)CC1=O (centres unmarked),-5.04
2,CCC(C(=O)OCC(=O)N1CCN(S(=O)(=O)c2ccc(C)cc2C)CC1)c1ccccc1 (centres unmarked),-15.8
3,COc1ccc(C(=O)C=CNNC(=O)c2ccc(Cl)cc2)cc1,20.3
4,COc1ccc(NC2=NCC(=O)N2Cc2cccs2)cc1.Cl,0.619
5,COc1ccc(S(=O)(=O)N2CC=C(C(=O)NC3CCCC3)CC2)cc1,1.24
6,Cc1cc(Cl)ccc1NC(=S)NC1CCCC1,11.4
7,O=C(Cc1ccccc1)NCc1ccc(F)cc1,9.14
8,CN(C)C(=O)On1c(-c2ccccc2)nc2ccc(Cl)cc21,-5.78
9,Cc1ccccc1C(=O)Nc1ccc2c(C#N)c3nc4ccccc4nc3n2c1,11.9
10,COc1cccc(-c2noc(CCC(=O)NC3CCCCC3)n2)c1,-6.43
11,COC(=O)Cc1cc(=O)[nH]c(Nc2nc3ccccc3o2)n1,-18.7
12,CCCCNC(=O)CSc1nc2cc3c(cc2c(=O)n1CCCN(CC)CC)OCO3,-62.6
13,COCCCn1c(=S)[nH]c2c(sc3ccccc32)c1=O,3.31
14,COCC(=O)n1nc(NCc2ccc(OC)cc2)nc1NCc1ccc(OC)cc1,-7.87
15,Cc1cc(C)n2nc(C)c(Br)c2n1,20
16,CCCCN(C(=O)COc1ccc(NC(C)=O)cc1)C1CCS(=O)(=O)C1 (centres unmarked),10.7
17,C/C(=N\O)c1c(O)cc(-c2ccccc2)n(-c2ccccc2)c1=O,8.56
18,Cc1cccc(/C=N\NC(=O)c2csnn2)c1,3.63
19,CCOC(=O)c1csc(NC(=O)c2ccc(N3C(=O)CCC3=O)cc2)n1,12.3
20,Cc1ccc(S(=O)(=O)NNC(=O)C2COc3ccccc3O2)cc1C (centres unmarked),15.2
21,CCC(=O)Nc1ccc(N2CCCCC2)c(C(=O)Nc2ccccc2C)c1,9.82
22,CC(C)n1cnc2c(Nc3ccc(F)c(Cl)c3)nc(NCCO)nc21,-39
23,CCOc1ccc(CN(C)CCc2ccccn2)cc1.O=C(O)C(=O)O,-77.8
24,Cc1nn(Cc2ccccc2)c2c1C(c1ccncc1)C(C#N)=C(N)O2 (centres unmarked),-0.682
25,CC12CCC(=O)N1C(C(=O)Nc1nc3ccc(S(C)(=O)=O)cc3s1)CS2 (centres unmarked),20.4
26,NS(=O)(=O)c1ccc(CCNC(=O)Nc2ccc(Cl)cc2)cc1,-9.65
